# The other results are listed elsewhere or left out. Sequences were assembled here from the parent chain. Inactive controls read about 0.05.
# B1: TEV protease; numbered along this chain (parent)
# chain: MGESLFKGPRDYNPISSSICHLTNESDGHTTSLYGIGFGPFIITNKHLFRRNNGTLVVQSLHGVFKVKDTTTLQQHLVDGRDMIIIRMPKDFPPFPQKLKFREPQREERICLVTTNFQTKSMSSMVSDTSCTFPSGDGIFWKHWIQTKDGQCGSPLVSTRDGFIVGIHSASNFTNTNNYFTSVPKNFMELLTNQEAQQWVSGWRLNADSVLWGGHKVFMVKPEEPFQPVKEATQL
# Variants of: B1
# Experiment: raw area under fraction-flipped curve 0-4 h after induction (AUC4h, not background-subtracted), DNA-recorder readout of cleavage of the substrate (dimensionless); higher = more cleavage of the substrate by the protease variant
# Settings: temperature: 34 °C; time window: 0-4 h after rhamnose induction
# 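Note: Bxb1 expression induced with 0.2% (w/v) L-rhamnose at OD600 near 0.5, cultures sampled hourly, flipped fraction per protease–substrate barcode pair counted by paired-end Illumina sequencing.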
Variant,area with substrate ENLYDQS,area with substrate ENLYKQS,area with substrate ENLYMQS,area with substrate ENLYQQS,area with substrate ENLYEQS,area with substrate ENLYGQS,area with substrate ENLYHQS,area with substrate ENLYIQS,area with substrate ENLYNQS,area with substrate ENLYPQS,area with substrate ENLYTQS,area with substrate ENLYVQS,area with substrate ENLYWQS,area with substrate ENLYYQS,area with substrate ENLYLQS,area with substrate ENLYRQS,area with substrate ENLYSQS
T176F,0.0611,0.0544,0.0658,0.0663,–,–,–,–,–,–,–,–,–,–,–,–,–
D128L,0.0628,0.0654,0.111,0.0605,0.0827,0.0743,0.0776,0.138,0.0778,0.0812,0.086,0.163,0.0981,0.0892,–,–,–
P96N,0.0119,0.0482,0.0962,–,0.0662,0.0661,0.0613,0.16,0.0702,0.0741,0.0767,0.091,0.103,0.0638,0.0915,0.0659,0.0813
N24T,0.0623,0.0172,0.065,–,0.0499,0.0649,0.0583,0.107,0.063,–,0.0636,0.0989,0.0512,–,0.0718,0.0686,0.0193
E224R,0.0724,0.073,–,0.066,0.0815,0.0554,0.0543,0.104,0.0664,–,–,0.108,0.0936,0.0418,–,0.0493,–
W144C,0.0661,0.0679,0.0595,0.068,0.071,–,0.0708,0.0716,0.0626,0.0713,0.0985,0.112,0.0678,0.0612,0.0696,0.0633,–
P184I,0.0627,0.0622,0.0647,0.0626,0.0572,0.0607,0.0629,0.0675,0.0594,0.0599,–,0.094,0.0612,0.0474,0.0618,–,0.0639
N24C,0.0651,0.059,0.0648,0.0658,0.0706,0.0724,0.063,0.0975,0.0633,0.0784,0.0767,0.11,0.0805,–,0.0573,0.0608,0.078
D27P,0.0587,0.0656,–,0.0558,0.0426,–,0.0599,0.0961,–,0.0259,0.0618,0.118,0.0843,–,–,0.0512,0.0706
M88Q,0.0236,0.0458,0.122,–,0.0665,0.0522,0.0639,–,0.0603,0.0688,–,0.113,0.0859,–,0.116,0.0886,–
W144P,0.0515,0.0586,0.0793,0.0623,0.0523,0.0695,0.0694,0.121,0.06,0.0611,0.078,–,0.0705,0.0587,0.0846,0.0732,–
V64K,0.0556,0.0654,0.0588,0.0685,0.076,0.0651,0.0623,0.115,0.0606,0.0776,0.0859,–,0.0839,0.054,0.117,–,0.0769
H168K,0.0586,–,0.0539,0.0626,0.0704,0.0576,0.0585,0.0439,0.0629,0.0714,–,0.0527,0.0628,–,–,0.0625,0.0587
